From the supplement of paper PMC8728848
This is one part of the list.

What was measured:
Test in all cases: glycan array binding signal (z-score within array); higher = stronger binding
Conditions in all cases: glycan notation: IUPAC condensed, linker removed; mutation: D22R
[1] = target: Neu5Ac(a2-3)Gal(b1-3)]Neu5Ac(a2-3)Gal(b1-4)]GlcNAc
Method in brief: (§1)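 Columns mapping to the same glycan were averaged after glycan names were converted to IUPAC-condensed notation. The data come from 3228 arrays in the Consortium for Functional Glycomics database, limited to those with an available protein sequence. Binding is reported as a within-array Z-score averaged across arrays of one protein sequence and across linkers.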

Neu5Ac(a2-3)Gal(b1-4)Glc = target: Neu5Ac(a2-3)Gal(b1-4)Glc
Method in brief: as §1

[2] = target: Neu5Ac(a2-3)Gal(b1-4)GlcNAc
Method in brief: as §1

[3] = target: Neu5Ac(a2-3)Gal(b1-4)GlcNAc(b1-2)Man
Method in brief: as §1

[4] = target: Neu5Ac(a2-3)Gal(b1-4)GlcNAc(b1-2)Man(a1-3)[GlcNAc(b1-4)][Neu5Ac(a2-3)Gal(b1-4)GlcNAc(b1-2)Man(a1-6)]Man(b1-4)GlcNAc(b1-4)GlcNAc
Method in brief: as §1

[5] = target: Neu5Ac(a2-3)Gal(b1-4)GlcNAc(b1-2)Man(a1-3)[Neu5Ac(a2-3)Gal(b1-4)GlcNAc(b1-2)Man(a1-6)]Man(b1-4)GlcNAc(b1-4)GlcNAc
Method in brief: as §1

[6] = target: Neu5Ac(a2-3)Gal(b1-4)GlcNAc(b1-2)Man(a1-3)[Neu5Ac(a2-3)Gal(b1-4)GlcNAc(b1-2)Man(a1-6)]Man(b1-4)GlcNAc(b1-4)[Fuc(a1-6)]GlcNAc
Method in brief: as §1

[7] = target: Neu5Ac(a2-3)Gal(b1-4)GlcNAc(b1-2)Man(a1-3)[Neu5Ac(a2-6)Gal(b1-4)GlcNAc(b1-2)Man(a1-6)]Man(b1-4)GlcNAc(b1-4)GlcNAc
Method in brief: as §1

[8] = target: Neu5Ac(a2-3)Gal(b1-4)GlcNAc(b1-2)[Neu5Ac(a2-3)Gal(b1-4)GlcNAc(b1-4)]Man(a1-3)[GlcNAc(b1-4)][Neu5Ac(a2-3)Gal(b1-4)GlcNAc(b1-2)[Neu5Ac(a2-3)Gal(b1-4)GlcNAc(b1-6)]Man(a1-6)]Man(b1-4)GlcNAc(b1-4)GlcNAc
Method in brief: as §1

[9] = target: Neu5Ac(a2-3)Gal(b1-4)GlcNAc(b1-2)[Neu5Ac(a2-3)Gal(b1-4)GlcNAc(b1-4)]Man(a1-3)[GlcNAc(b1-4)][Neu5Ac(a2-3)Gal(b1-4)GlcNAc(b1-4)Man(a1-6)]Man(b1-4)GlcNAc(b1-4)GlcNAc
Method in brief: as §1

[10] = target: Neu5Ac(a2-3)Gal(b1-4)GlcNAc(b1-2)[Neu5Ac(a2-3)Gal(b1-4)GlcNAc(b1-6)]Man(a1-6)[Neu5Ac(a2-3)Gal(b1-4)GlcNAc(b1-2)Man(a1-3)][GlcNAc(b1-4)]Man(b1-4)GlcNAc(b1-4)GlcNAc
Method in brief: as §1

[11] = target: Neu5Ac(a2-3)Gal(b1-4)GlcNAc(b1-3)Gal
Method in brief: as §1

[12] = target: Neu5Ac(a2-3)Gal(b1-4)GlcNAc(b1-3)Gal(b1-3)GlcNAc
Method in brief: as §1

[13] = target: Neu5Ac(a2-3)Gal(b1-4)GlcNAc(b1-3)Gal(b1-4)GlcNAc
Method in brief: as §1

[14] = target: Neu5Ac(a2-3)Gal(b1-4)GlcNAc(b1-3)Gal(b1-4)GlcNAc(b1-2)Man(a1-3)[Neu5Ac(a2-3)Gal(b1-4)GlcNAc(b1-3)Gal(b1-4)GlcNAc(b1-2)Man(a1-6)]Man(b1-4)GlcNAc(b1-4)GlcNAc
Method in brief: as §1

[15] = target: Neu5Ac(a2-3)Gal(b1-4)GlcNAc(b1-3)Gal(b1-4)GlcNAc(b1-3)Gal(b1-4)GlcNAc
Method in brief: as §1

[16] = target: Neu5Ac(a2-3)Gal(b1-4)GlcNAc(b1-3)Gal(b1-4)GlcNAc(b1-3)Gal(b1-4)GlcNAc(b1-2)Man(a1-3)[Neu5Ac(a2-3)Gal(b1-4)GlcNAc(b1-3)Gal(b1-4)GlcNAc(b1-3)Gal(b1-4)GlcNAc(b1-2)Man(a1-6)]GalNAc
Method in brief: as §1

[17] = target: Neu5Ac(a2-3)Gal(b1-4)GlcNAc(b1-3)Gal(b1-4)GlcNAc(b1-3)GalNAc
Method in brief: as §1

[18] = target: Neu5Ac(a2-3)Gal(b1-4)GlcNAc(b1-3)Gal(b1-4)GlcNAc(b1-3)[Neu5Ac(a2-3)Gal(b1-4)GlcNAc(b1-3)Gal(b1-4)GlcNAc(b1-6)]GalNAc
Method in brief: as §1

[19] = target: Neu5Ac(a2-3)Gal(b1-4)GlcNAc(b1-3)Gal(b1-4)GlcNAc(b1-6)[Gal(b1-3)]GalNAc
Method in brief: as §1

[20] = target: Neu5Ac(a2-3)Gal(b1-4)GlcNAc(b1-3)Gal(b1-4)[Fuc(a1-3)]GlcNAc
Method in brief: as §1

[21] = target: Neu5Ac(a2-3)Gal(b1-4)GlcNAc(b1-3)GalNAc
Method in brief: as §1

[22] = target: Neu5Ac(a2-3)Gal(b1-4)GlcNAc(b1-3)[Neu5Ac(a2-3)Gal(b1-4)GlcNAc(b1-6)]GalNAc
Method in brief: as §1

[23] = target: Neu5Ac(a2-3)Gal(b1-4)GlcNAc(b1-6)GalNAc
Method in brief: as §1

[24] = target: Neu5Ac(a2-3)Gal(b1-4)GlcNAc(b1-6)[Gal(b1-3)]GalNAc
Method in brief: as §1

[25] = target: Neu5Ac(a2-3)Gal(b1-4)GlcNAc(b1-6)[Neu5Ac(a2-3)Gal(b1-3)]GalNAc
Method in brief: as §1

[26] = target: Neu5Ac(a2-3)Gal(b1-4)GlcNAc6S
Method in brief: as §1

[27] = target: Neu5Ac(a2-3)Gal(b1-4)[Fuc(a1-3)]GlcNAc
Method in brief: as §1

[28] = target: Neu5Ac(a2-3)Gal(b1-4)[Fuc(a1-3)]GlcNAc(b1-2)Man
Method in brief: as §1

[29] = target: Neu5Ac(a2-3)Gal(b1-4)[Fuc(a1-3)]GlcNAc(b1-3)Gal
Method in brief: as §1

[30] = target: Neu5Ac(a2-3)Gal(b1-4)[Fuc(a1-3)]GlcNAc(b1-3)Gal(b1-4)GlcNAc
Method in brief: as §1

[31] = target: Neu5Ac(a2-3)Gal(b1-4)[Fuc(a1-3)]GlcNAc(b1-3)Gal(b1-4)[Fuc(a1-3)]GlcNAc(b1-3)Gal(b1-4)[Fuc(a1-3)]GlcNAc
Method in brief: as §1

[32] = target: Neu5Ac(a2-3)Gal(b1-4)[Fuc(a1-3)]GlcNAc(b1-3)GalNAc
Method in brief: as §1

[33] = target: Neu5Ac(a2-3)Gal(b1-4)[Fuc(a1-3)]GlcNAc(b1-6)[Gal(b1-3)]GalNAc
Method in brief: as §1

[34] = target: Neu5Ac(a2-3)Gal(b1-4)[Fuc(a1-3)]GlcNAc(b1-6)[Neu5Ac(a2-3)Gal(b1-3)]GalNAc
Method in brief: as §1

[35] = target: Neu5Ac(a2-3)Gal(b1-4)[Fuc(a1-3)]GlcNAc6S
Method in brief: as §1

[36] = target: Neu5Ac(a2-3)Gal6S(b1-4)GlcNAc
Method in brief: as §1

[37] = target: Neu5Ac(a2-3)Gal6S(b1-4)[Fuc(a1-3)]GlcNAc
Method in brief: as §1

B1: MpL2 (Macrolepiota procera) (protein)
chain: MSTQVSSGQTYKITNVKAGTVIRLSGEDNKSIIGYPYHSGKNQQWTFNWTGKAWTLRSASSGSYLGIEGTPADGTRLVAVNDPFEWHIWRDEANENAFRIFVPFTNYNLDLSGYGDTTPGTPVQLWWTWEGLHQTWTIDRP
glycan array binding signal (z-score) [1]: -0.346 | glycan array binding signal (z-score) (Neu5Ac(a2-3)Gal(b1-4)Glc): 0.286 | glycan array binding signal (z-score) [2]: -0.933 | glycan array binding signal (z-score) [3]: 0.304 | glycan array binding signal (z-score) [4]: -0.03 | glycan array binding signal (z-score) [5]: -0.534 | glycan array binding signal (z-score) [6]: 0.287 | glycan array binding signal (z-score) [7]: -0.105 | glycan array binding signal (z-score) [8]: -0.66 | glycan array binding signal (z-score) [9]: -0.638 | glycan array binding signal (z-score) [10]: -0.76 | glycan array binding signal (z-score) [11]: -0.565 | glycan array binding signal (z-score) [12]: -0.092 | glycan array binding signal (z-score) [13]: 0.013 | glycan array binding signal (z-score) [14]: 1.93 | glycan array binding signal (z-score) [15]: -0.861 | glycan array binding signal (z-score) [16]: 1.5 | glycan array binding signal (z-score) [17]: -0.278 | glycan array binding signal (z-score) [18]: 0.155 | glycan array binding signal (z-score) [19]: -0.014 | glycan array binding signal (z-score) [20]: -0.58 | glycan array binding signal (z-score) [21]: -0.161 | glycan array binding signal (z-score) [22]: 0.08 | glycan array binding signal (z-score) [23]: -1.26 | glycan array binding signal (z-score) [24]: 0.265 | glycan array binding signal (z-score) [25]: -0.836 | glycan array binding signal (z-score) [26]: -0.566 | glycan array binding signal (z-score) [27]: -0.189 | glycan array binding signal (z-score) [28]: -0.833 | glycan array binding signal (z-score) [29]: -0.033 | glycan array binding signal (z-score) [30]: 0.077 | glycan array binding signal (z-score) [31]: -0.574 | glycan array binding signal (z-score) [32]: 0.709 | glycan array binding signal (z-score) [33]: 0.668 | glycan array binding signal (z-score) [34]: 0.565 | glycan array binding signal (z-score) [35]: -0.024 | glycan array binding signal (z-score) [36]: -0.454 | glycan array binding signal (z-score) [37]: -0.637
